Data as given in PubChem BioAssay (NCI).
Several values for one entry are separate records, joined by “and”; a condition that tells them apart may be missing. Equal entries are not always repeated.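 Cultured in 96-well plates, cells were exposed to test compound for 48 hours across five concentrations. GI50 marks 50% less growth. TGI: total growth inhibition.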

The compounds below were run on NCI-H322M lung (assay: DTP human tumour cell line panel, 48 h).

Row | Compound | TGI | GI50
1 | O=C1c2ccc(O)c(O)c2C(=O)c2c(O)ccc(O)c21 | 67.7 µM | 
2 | BrC(c1cccc2ccccc12)c1cccc2ccccc12 | 48.7 µM | 
3 | CC(=O)OCC1OC(n2c(-c3ccc(C)cc3)cc(-c3ccccc3)c(C#N)c2=O)C(OC(C)=O)C(OC(C)=O)C1OC(C)=O (stereo not given) | > 100 µM | 
4 | CCCCn1c2c(n(CCCC)c1=S)-c1c(n(CCCC)c(=S)n1CCCC)SSc1c(n(CCCC)c(=S)n1CCCC)-c1c(n(CCCC)c(=S)n1CCCC)SSc1c(n(CCCC)c(=S)n1CCCC)-c1c(n(CCCC)c(=S)n1CCCC)SS2 | > 50 µM | 
5 | O=C(OC[C@H]1O[C@H](OC(=O)c2cc(O)c(O)c(OC(=O)c3cc(O)c(O)c(O)c3)c2)[C@H](OC(=O)c2cc(O)c(O)c(OC(=O)c3cc(O)c(O)c(O)c3)c2)[C@@H](OC(=O)c2cc(O)c(O)c(OC(=O)c3cc(O)c(O)c(O)c3)c2)[C@@H]1OC(=O)c1cc(O)c(O)c(OC(=O)c2cc(O)c(O)c(O)c2)c1)c1cc(O)c(O)c(OC(=O)c2cc(O)c(O)c(O)c2)c1 | 20 µM | 1.41 µM
6 | CC(C)(c1ccccc1)c1ccc(OC#N)cc1 | > 100 µM | 
7 | Cc1cc(N2CCOCC2)cc2[nH]c(-c3c(NC[C@@H](O)c4cccc(Cl)c4)cc[nH]c3=O)nc12 | 13.7 µM | 1.46 µM
8 | O=C(O)CCc1nn2c(nc1=O)sc1ccc3ccccc3c12 | > 100 µM | 
9 | Cn1cc(C(=O)C[n+]2ccccc2)c2ccccc21 | > 100 µM | 
10 | O=c1c2cc(Cl)ccc2sc2cccc(Cl)c12 | > 100 µM | 
11 | COc1ccccc1NC(=O)CC(=O)N/N=C/c1ccc(N(CCC#N)S(=O)(=O)c2ccccc2)cc1 | > 100 µM | 
12 | COc1cc(Nc2ncc(F)c(Nc3ccc4c(n3)N(COP(=O)(O)O)C(=O)C(C)(C)O4)n2)cc(OC)c1OC | 9.32 µM and > 10 µM | 2 µM and 2.22 µM
13 | CC(=O)O[C@H]1C(=O)[C@@]2(C)C(C(OC(=O)c3ccccc3)C3[C@@H](O)C(OC(=O)[C@@H](O)[C@H](NC(=O)c4ccccc4)c4ccc(C(F)(F)F)cc4)C(C)=C1C3(C)C)[C@]1(OC(C)=O)CO[C@@H]1C[C@@H]2O (stereo not given in full) | > 25 µM | 
14 | N#C/C(N)=C(\C#N)NC(=O)C(=O)N/C(C#N)=C(\N)C#N | > 100 µM | 
15 | COc1ccc2nc(-c3ccc(O)cc3)sc2c1 | > 100 µM | 
16 | OC(c1cc(C23CC4CC(CC(C4)C2)C3)nc2c(Cl)cc(Cl)cc12)C1CCCCN1 (stereo not given) | 3.1 µM | 
17 | COc1ccc(SCc2cc(OCc3ccccc3)c(OCc3ccccc3)c(OCc3ccccc3)c2)cc1 | 3.2 µM | 
18 | N#CC1CCCCCCCCCCC(=O)N(CCCl)C1=O (stereo not given) | > 100 µM | 
19 | O=C(Nc1nc(C23CC4CC(CC(C4)C2)C3)cs1)c1cc2ccccc2oc1=O | > 100 µM | 
20 | Cc1cnc(C(=O)Nc2nc3ccc(S(=O)(=O)Nc4ccc(C5(C(F)(F)F)CC5)cc4)cc3[nH]2)cn1 | 9.78 µM | 0.582 µM
21 | CC1OC(n2cc(F)c(=O)[nH]c2=O)C=CC1=O (stereo not given) | > 100 µM | 
22 | O=C1C(Cl)=C(Nc2ccc(S(=O)(=O)Nc3ccccn3)cc2)C(=O)c2ccccc21 | > 49.9 µM | 
23 | C=CCc1cccc2cc(C(=O)Nc3ccccn3)c(=N)oc12 | > 100 µM | 
24 | O=c1cccccc1[O-].O=c1cccccc1[O-].O=c1cccccc1[O-].[La+3] | > 100 µM | 

Row | Compound | TGI | GI50
25 | CC(C)=CC1=C2C3=C(C(=O)C4(O)Oc5c(C)c6c7c(c5OC24C)[C@@H](C)CC[C@@H]7[C@@H](C)C[C@H]6C=C(C)C)C(C)CCC3C(C)C1 (stereo not given in full) | > 100 µM | 88.8 µM
26 | COc1cc(C2CC(c3ccc(Nc4ccnc5cc(Cl)ccc45)cc3)=NN2c2ccc(Cl)cc2)cc(OC)c1OC (stereo not given) | > 100 µM | 13.2 µM
27 | Cc1cc(Cl)ccc1NC(=O)CC1SC(=Nc2ccccc2Cl)NC1=O (stereo not given) | > 100 µM | 
28 | O=C(O)C1CC(O)CN1 (stereo not given) | > 100 µM | 
29 | CC1(C)CCC[C@]2(C)[C@H]3[C@H](C#N)c4cc(O)c(O)cc4O[C@@]3(C)CC[C@@H]12 | > 10 µM | 
30 | Nc1nc2c3nc(Nc4ccccc4)sc3nc(=O)n2c2sc(Nc3ccccc3)nc12 | > 100 µM | 
31 | N#CC1(C#N)C(C#N)(C#N)C12CCCCCC2 | 34.9 µM | 
32 | CCOC(=O)c1c(N2CCOCC2)[nH]c(=O)c(C(c2ccco2)c2c(O)c(C(=O)OCC)c(N3CCOCC3)[nH]c2=O)c1O | > 100 µM | 
33 | COc1ccc(OCC(=O)O)c(C(=O)CCC(=O)O)c1 | > 100 µM | 
34 | O=C1C(=O)c2cccnc2-c2ncccc21 | 3.04 µM | 0.97 µM
35 | O=C1C(=Cc2c(O)cc(O)cc2O)C(=O)c2ccccc21 | > 75.4 µM | 
36 | Cc1ccc(NC(=O)c2cc(S(=O)(=O)Nc3nc4ncccc4[nH]3)c(SSc3cc(Cl)c(C(=O)Nc4ccc(C)cc4)cc3S(=O)(=O)Nc3nc4ncccc4[nH]3)cc2Cl)cc1 | > 100 µM | 
37 | CCCCCCCCCCCCC(O)[C@H]1CC[C@H](C(O)CCCCCC(=O)CCCCC2CC(C(C)=O)C(=O)O2)O1 (stereo not given in full) | 66.9 µM | 8.48 µM
38 | CC(C(O)c1ccccc1)C(O)(C(F)(F)F)C(F)(F)F (stereo not given) | > 100 µM | 
39 | CC12CCC(Br)C(C)(C)C1CC=C1C(=O)OCC1O2 (stereo not given) | 38.5 µM | 
40 | Oc1ccc2c(c1)-c1c(c3ccccc3n1CCN1CCOCC1)CC2 | 56.7 µM | 
41 | CN(Cc1cc(C(C)(C)C)cc(Br)c1O)Cc1cc(C(C)(C)C)cc(Br)c1O | 17.8 µM | 
42 | N#CC1CC2(CCN1C(=O)c1ccccc1)OCCO2 (stereo not given) | > 100 µM | 
43 | COc1cccc(NC(=O)/C(Cc2nc3ccccc3nc2C)=N/NC(=O)C[n+]2ccccc2)c1 | > 100 µM | 
44 | Cc1cccc(NC(=O)c2cccc([N+](=O)[O-])c2O)c1C | > 90.6 µM | 
45 | CC(=O)c1cc2ccccc2oc1=O | > 100 µM | 
46 | COc1cc(/C=C/C(=O)C2(C(=O)/C=C/c3cc(OC)c(OC)c(OC)c3)CCCCC2)cc(OC)c1OC | > 100 µM | 
47 | COC(=O)Nc1nc2ccc(Br)cc2[nH]1 | > 100 µM | 
48 | CCN1CCN(CC(=O)N2c3cccc4cccc(c34)N(C(=O)CN3CCN(CC)CC3)C2c2cn(-c3ccccc3)nc2-c2cccc([N+](=O)[O-])c2)CC1 | 3.82 µM | 1.81 µM

Row | Compound | TGI | GI50
49 | CC(=O)C1=C(O)CC2CC3c4[nH]c5ccccc5c4CCN3CC2C1 (stereo not given) | > 100 µM | 
50 | CC(C)(C)OC(=O)N1C(c2cccnc2)=CC[C@H]2C3CC=C(c4cccnc4)[C@@]3(C)CC[C@@H]21 (stereo not given in full) | 29.5 µM | 
51 | Cc1cc(C)cc(NC(N)=S)c1 | > 100 µM | 
52 | O=C1CC(c2ccccc2)n2cccc21 (stereo not given) | > 100 µM | 
53 | C[C@@H]1CC[C@@H]2[C@@H](C1)O[C@@H]([C@H](C)OCc1ccccc1)SC2(C)C | 68.4 µM | 
54 | CCOC(=O)CCC(NC(=O)c1ccc(OCc2ccc3nc(-c4ccccc4)c(Cl)nc3c2)cc1)C(=O)OCC (stereo not given) | > 100 µM | 
55 | CC1(C)C2C=CC1C(=O)CC2 (stereo not given) | > 100 µM | 
56 | O=c1/c(=C/c2ccc(-c3ccc(Cl)cc3Cl)o2)sc2n1[C@@H](c1ccc(Cl)cc1)C=C(c1cc(F)c(Cl)cc1Cl)N=2 | > 100 µM | 
57 | Cc1ccc(O)c(NC(=O)c2ccc(CNc3ccnc(C(F)(F)F)c3)cc2)c1 | 58.2 µM | 8.27 µM
58 | COc1cc(C(O)(CC#N)c2cc3c(cc2Br)OCO3)cc(OC)c1OC (stereo not given) | > 100 µM | 
59 | O=C1c2ccccc2S(=O)(=O)c2cc(-c3nn[nH]n3)ccc21 | > 100 µM | 
60 | CC(=O)OCc1ccc2oc(=O)c(C(=O)Oc3ccccc3)cc2c1 | > 100 µM | 
61 | O=C1CSC(c2cccc([N+](=O)[O-])c2)N1c1ccc(-n2c(-c3ccccc3)nc3ccccc3c2=O)cc1 (stereo not given) | > 100 µM | 
62 | Cc1ccccc1S(=O)(=O)Nn1cnc2ccc(S(=O)(=O)Nc3ccc(Cl)cc3)cc2c1=O | > 100 µM | 
63 | CC1(C)OCC=CCO1 | > 100 µM | 
64 | O=Cc1c(O)c(C(=O)Nc2ccc3[nH]c(=O)[nH]c3c2)cc2ccccc12 | > 100 µM | 
65 | CCN(CC)c1ccc(C(=O)c2ccc(N(CC)CC)cc2)cc1 | > 100 µM | 1.17 µM
66 | O=C1c2ccccc2C(=O)N1CC(O)COc1cccc2ccccc12 (stereo not given) | > 100 µM | 
67 | COc1ccc2c(c1)CCc1c-2n(CCN2CCCCC2)c2ccc(OC)cc12 | > 100 µM | 
68 | CCOC(=O)c1ccc(NCC#CCN2CCCCC2)cc1 | > 100 µM | 
69 | CSc1nc(SC)c2c(CO)c(Br)n(Cc3ccccc3)c2n1 | 45.7 µM | 
70 | Oc1ccc2oc3ncc(Br)c(-c4ccccc4)c3c2c1 | > 100 µM | > 100 µM
71 | N#Cc1c(N)nc(Sc2ccccc2N)c(C#N)c1-c1ccc(Cl)cc1 | > 100 µM | 
72 | O=[N+]([O-])c1cc(-c2nc(-c3ccccc3)c(-c3ccccc3)[nH]2)c(O)c([N+](=O)[O-])c1 | 52.4 µM | 

Row | Compound | TGI | GI50
73 | Cc1cc2c(C)nn(Cc3ccc(Cl)cc3)c2c(C#N)c1C | > 100 µM | 
74 | COI1NC(=O)c2ccccc21 | > 100 µM | 
75 | Nc1onc2c1Cc1c(noc1N)-c1ccccc1-2 | > 100 µM | 
76 | CC(=O)O[C@H]1[C@H](OC(=O)CC(C)(O)CC(=O)O)C[C@]2(C)C3=C(CCC2C1(C)C)[C@]1(C)CC[C@H]([C@H]2CC[C@H](C(C)(C)O)OC2O)[C@@]1(C)[C@@H](O)C3 (stereo not given in full) | 35.6 µM | 
77 | CC(C)CC(NC(=O)OC(C)(C)C)C(=O)Nc1ccc(Nc2nc(F)nc(-c3c4ccccc4cn3C)n2)cc1 (stereo not given) | 40.4 µM | 
78 | C[N+]1=C(/C=C\C=C\c2ccccc2)C(C)(C)c2ccccc21 | 15 µM | 3.99 µM
79 | COC(=O)C1OC(O[C@H]2CC[C@]3(C)[C@H]4CC=C5[C@@H]6CC(C)(C)CC[C@]6(C(=O)OC6OCC(O)C(O)C6OC6OC(C)C(OC7OCC(O)C(O)C7O)C(O)C6O)CC[C@@]5(C)[C@]4(C)CC[C@H]3C2(C)C)C(O)C(O)C1O (stereo not given in full) | 30.3 µM and 30.9 µM | 
80 | CCC(=O)Nc1ccc(N2C(=O)C(Cl)C2c2ccc(SC)cc2)cc1 (stereo not given) | > 100 µM | 
81 | COc1ccc(-c2cc3[nH]nc(N)c3c(=O)o2)cc1 | > 100 µM | 
82 | N#C/C(=C\c1ccc(Br)cc1)n1nnc2ccc(F)cc21 | 3.09 µM | 1.56 µM
83 | CCCC(=O)Nc1cc(/C=C/C(=O)N2CC(CCl)c3c2cc(O)c2[nH]cc(C)c32)n(C)c1 (stereo not given) | < 2.5e-05 µM | 
84 | CC1=C(C)Cc2c(O)ccc(O)c2C1 | > 100 µM | 
85 | Cc1ncc(C(=O)Nc2ccc(CN3CCN(C)CC3)c(C(F)(F)F)c2)cc1C#Cc1cnc(N)cc1C#N | 2.8 µM | 0.778 µM
86 | O=C1C[C@@H]2/C(=C(O)\C=C\c3ccccc3)C(=O)C=C[C@@H]2O1 | 5.7 µM | 1.88 µM
87 | OCCNCNc1nc(NCNCCO)nc(N(CNCCO)CNCCO)n1 | > 81.1 µM | 
88 | CCC(C#N)NCc1cccc(CNC(C#N)CC)c1 (stereo not given) | > 100 µM | 
89 | N#Cc1cnc(N)nc1NCC1(CO)CC(CCc2ccccc2)C1 (stereo not given) | > 100 µM | 
90 | COC(=O)C(CCSC)NC(=O)Cc1ccc(C(=O)c2ccccc2)cc1 (stereo not given) | > 100 µM | 
91 | CN(C)c1ccc(/C=C/c2cc[n+](C)c(/C=C/c3ccc(N(C)C)cc3)c2)cc1 | 11.4 µM | 1.85 µM
92 | Cc1ccc2c(c1)-c1nc(N)c(C#N)c(-c3ccccc3)c1CCS2(=O)=O | 90.6 µM | 
93 | Clc1ccc(C(n2cc(Br)cn2)n2cc(Br)cn2)cc1 | 30.2 µM | 
